Laboratory results: PubChem BioAssay AID2546 (National Center for Advancing Translational Sciences (NCATS), 2010)
About 11,000 (3.5%) of roughly 310,000 compounds were called active. This list was built around the results that the source calls inconclusive (neither active nor inactive); the mix of calls is not that of the screen. The call rests on the fitted dose curve; in most records, active means well fitted inhibition curve with a large enough effect; inconclusive means small, poorly fitted or top-dose-only effect, or effect the other way; inactive means flat fitted curve, though single readings scatter. No potency is given beside an inconclusive call; the fits are too rough.

Experiment: VP16 counterscreen qHTS for inhibitors of ROR gamma transcriptional activity;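 further: Gal4-VP16 expression switched on by copper sulfate through the metallothionein promoter; nearly all actives have a fitted effect of over 50% in size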
Conditions: Drosophila S2 Gal4-VP16 UAS-luciferase, luminescence, 20 h; activity, negative = inhibition: at 53.6 µM (top of the series)
On the % scale 0 is the no-effect control and ±100 the full control effect; potency means the concentration at half of the fitted maximal effect; tags describe the fitted curve by direction and shape.

| Structure (SMILES) | Potency | activity, negative = inhibition |
| --- | --- | --- |
| CCOc1ccc(-n2c(-c3ccc(Cl)cc3)c[n+]3c2SCC3)cc1 | inconclusive [inhibitor, single point] | – |
| CC(=O)c1ccccc1C(=O)N1CCCC(CNC(=O)c2ccccc2Cl)C1 (configuration not stated) | – | inactive: 1.54% |
| CC1=NN(C(=O)COc2ccc(C)c(C)c2)C(O)(c2ccccc2)C1 (configuration not stated) | active: 11.2 µM | – |
| O=C(c1ccc(COc2ccc(Cl)cc2)o1)N1N=C(C(F)F)CC1(O)C(F)F (configuration not stated) | inconclusive [inhibitor, single point] | – |
| CCOc1cc(-c2nc3ccccn3c2NCC2CCCO2)ccc1O (configuration not stated) | inconclusive [activator, single point] | – |
| COc1ccc(OC)c(NC(=S)N2CCC(C(O)(c3ccccc3)c3ccccc3)CC2)c1 | inconclusive [inhibitor, single point] | – |
| O=C1OCCC1Sc1nnc(-c2ccc(O)cc2)o1 (configuration not stated) | – | inactive: 1.76% |
| C(=C\c1ccccc1)/C=N/Nc1nc2ccccc2[nH]1 | active: 5.01 µM | – |
| Oc1ccc(/C=N\Nc2nncc(-c3ccccc3)n2)cc1 | inconclusive [inhibitor, partial curve] | – |
| CC1=NN(C(=O)Cn2nc([N+](=O)[O-])c(Br)c2C)C(O)(C(F)(F)F)C1 (configuration not stated) | inconclusive [inhibitor, single point] | – |
| O=C(O)CC1(CC(=O)NCc2ccc(-c3cccs3)cc2)CCCCC1 | inconclusive [inhibitor, single point] | – |
| COc1cc(/C=C/C(=O)c2ccc(NS(=O)(=O)c3ccc(C)cc3)cc2)cc(OC)c1O | inconclusive [inhibitor, single point] | – |
| CCOc1ccc(/C=C/C(O)=C2/C(=O)NC3(C)CC2c2ccccc2O3)cc1OC (configuration not stated) | inconclusive [activator, single point] | – |
| Cc1ccc(NC(=O)c2ccc3c(c2)N(CC(=O)NC(C)C)C(=O)C(C)(C)O3)cc1 | – | inactive: 1.88% |
| c1ccc(Nc2nc(NCc3ccco3)c3ccccc3n2)cc1 | inconclusive [inhibitor, single point] | – |
| O=C1C=CC(=O)N1c1ccc(O)cc1 | inconclusive [inhibitor, single point] | – |
| Cc1ccc(C(c2nnnn2CCc2ccccc2)N2CCSCC2)cc1 (configuration not stated) | – | inactive: -3.14% |
| CCCCC(=O)c1c(O)c2ccccc2oc1=O | – | inactive: -11.7% |
| COc1c(Cl)cc(Cl)cc1C(=O)Nc1ccc(CN2CCOCC2)cc1 | – | inactive: -5.4% |
| Cc1cc(N2CCCC2=O)ccc1S(=O)(=O)NC1CCCCC1 | inconclusive [inhibitor, single point] | – |
| Cc1noc(C)c1COC(=O)c1cccc(S(=O)(=O)N2CCCCCC2)c1 | inconclusive [inhibitor, single point] | – |
| Cc1ccc(S(=O)(=O)Nc2ccc(NC(=O)Nc3ccc(F)cc3F)cc2)cc1 | inconclusive [inhibitor, single point] | – |
| O=C(Cn1cncn1)NCc1cccc(OC(F)F)c1 | – | inactive: -5.99% |
| CCc1ccc(N=c2c([N+](=O)[O-])nn(-c3ccc4c(c3)OCCO4)n2O)cc1 | inconclusive [inhibitor, single point] | – |

| Structure (SMILES) | Potency | activity, negative = inhibition |
| --- | --- | --- |
| CN(CCn1ccnc1)Cc1cn(-c2ccccc2)nc1-c1ccc2c(c1)OCO2 | – | inactive: -6.11% |
| COc1cc(OC)cc(N(C(=O)c2ccco2)C(C(=O)NC2CCCC2)c2ccc(N3CCOCC3)cc2)c1 (configuration not stated) | inconclusive [inhibitor, single point] | – |
| COC(=O)N/N=C/c1cc(N=Nc2ccccc2)ccc1O | inconclusive [inhibitor, single point] | – |
| COc1ccc(C(=O)NCc2nnc(SCC(=O)Nc3nnc(C)s3)o2)cc1 | inconclusive [inhibitor, single point] | – |
| Cc1ccc(C(C(=O)NC2CCCCC2)N(C(=O)c2csnn2)C2CC2)o1 (configuration not stated) | inconclusive [inhibitor, single point] | – |
| CCOC(=O)c1ccc(NC(=O)CSc2nccn2C)cc1 | inconclusive [inhibitor, single point] | – |
| Cc1cc(N/N=C/c2cccc([N+](=O)[O-])c2)nc(-n2nc(C)cc2C)n1 | active: 1 µM | – |
| CC(C)c1ccc2c(c1)C1Cc3ccccc3C1N2 (configuration not stated) | inconclusive [inhibitor, single point] | – |
| Cc1[nH][nH]c(=O)c1C(c1ccc(-c2ccc(F)cc2)o1)c1c(C)[nH][nH]c1=O | inconclusive [inhibitor, single point] | – |
| O=c1[nH][nH]c(-c2ccccc2O)c1C(C[N+](=O)[O-])c1cccc(Cl)c1 (configuration not stated) | inconclusive [inhibitor, single point] | – |
| CCOc1ccc(S(=O)(=O)N2CCC(C(=O)N3CCc4ccccc4C3)CC2)cc1 | – | inactive: -7.8% |
| O=c1[nH]c(=O)c2ccccc2o1 | – | inactive: 2.23% |
| O=C(C1Cc2ccccc2CN1S(=O)(=O)c1ccc(F)cc1)N1CCCCC1 (configuration not stated) | – | inactive: -2.48% |
| CC(=O)c1ccc(NC(=O)c2ccc3nc(C)sc3c2)cc1 | inconclusive [activator, single point] | – |
| COc1cccc(C2N(c3ccccc3)CCN2c2ccccc2)c1OC | – | inactive: -2.85% |
| CCN1CCN(C(=O)c2ccc(N3CC4CC(C3)c3cccc(=O)n3C4)c([N+](=O)[O-])c2)CC1 (configuration not stated) | – | inactive: -9.08% |
| CSc1ccccc1NC(=S)N/N=C/c1cccn1Cc1cccc(C)c1 | active: 5.01 µM | – |
| Cc1ccsc1/C=N/NC(=O)c1ccc2ccccc2c1 | active: 5.62 µM | – |
| Cc1ccc(S(=O)(=O)Cc2c(C)noc2C)cc1 | inconclusive [inhibitor, full curve] | – |
| COc1ccccc1C(=O)NC1CCCCCCC1 | inconclusive [activator, full curve] | – |
| COc1ccc(-c2cc(Nc3ccccc3NC(=O)C(F)(F)F)n(CCC#N)n2)cc1 | inconclusive [inhibitor, single point] | – |
| CCOC(=O)C(CC)n1cnc2c(nnn2-c2ccc(OC)cc2)c1=O (configuration not stated) | – | inactive: -0.114% |
| CCCc1cc(=O)[nH]c(SCC(=O)c2c(C)[nH]c3ccccc23)n1 | inconclusive [inhibitor, partial curve] | – |
